{"source": "paper PMC4336329", "about": "(PLoS ONE, 2015)", "note": "Among all 310,000 compounds or so, about 2,200 (0.71%) showed an effect of 50% or more. Effects have a minus sign here. This is one part of the list."}
{"target": "human ether-à-go-go-related gene (hERG) potassium channel (human, UniProt Q12809)", "sequence (Q12809 whole entry, looked up)": "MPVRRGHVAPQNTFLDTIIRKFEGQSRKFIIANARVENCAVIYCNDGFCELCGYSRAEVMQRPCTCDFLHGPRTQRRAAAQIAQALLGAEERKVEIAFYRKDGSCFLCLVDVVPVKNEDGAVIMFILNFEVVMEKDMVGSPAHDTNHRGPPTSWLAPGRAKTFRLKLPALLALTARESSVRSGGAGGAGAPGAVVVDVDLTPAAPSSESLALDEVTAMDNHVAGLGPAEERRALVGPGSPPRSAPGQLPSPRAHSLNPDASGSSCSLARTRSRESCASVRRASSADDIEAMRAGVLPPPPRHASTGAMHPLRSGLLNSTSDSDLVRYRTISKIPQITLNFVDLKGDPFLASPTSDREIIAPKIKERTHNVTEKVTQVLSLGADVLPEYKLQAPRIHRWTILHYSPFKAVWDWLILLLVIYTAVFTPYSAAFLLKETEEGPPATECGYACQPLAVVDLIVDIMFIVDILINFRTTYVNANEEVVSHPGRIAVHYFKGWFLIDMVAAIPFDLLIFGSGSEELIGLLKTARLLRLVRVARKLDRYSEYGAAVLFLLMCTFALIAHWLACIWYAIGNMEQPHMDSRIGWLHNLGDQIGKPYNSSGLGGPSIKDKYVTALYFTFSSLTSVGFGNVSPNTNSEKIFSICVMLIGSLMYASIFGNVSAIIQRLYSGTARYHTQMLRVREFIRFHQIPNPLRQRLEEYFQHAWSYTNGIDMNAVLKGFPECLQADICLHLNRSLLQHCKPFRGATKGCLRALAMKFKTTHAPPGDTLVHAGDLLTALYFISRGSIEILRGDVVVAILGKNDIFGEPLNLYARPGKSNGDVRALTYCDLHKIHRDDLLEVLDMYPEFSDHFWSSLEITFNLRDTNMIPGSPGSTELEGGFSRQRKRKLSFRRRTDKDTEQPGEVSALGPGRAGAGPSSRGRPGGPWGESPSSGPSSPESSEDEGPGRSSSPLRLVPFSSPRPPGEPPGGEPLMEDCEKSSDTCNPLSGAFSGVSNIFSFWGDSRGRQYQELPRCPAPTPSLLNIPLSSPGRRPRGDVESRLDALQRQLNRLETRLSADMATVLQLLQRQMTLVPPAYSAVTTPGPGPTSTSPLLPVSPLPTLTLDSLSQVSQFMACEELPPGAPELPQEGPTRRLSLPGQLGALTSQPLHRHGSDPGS", "experiment": "primary screen, population patch clamp on CHO cells stably expressing hERG", "units": {"hERG current change (%, negative = inhibition) at 1uM": "%"}}
{"smiles": "CC(C)C(C(=O)C=[N+]=[N-])N1C(=O)c2ccccc2C1=O", "note": "(centres unmarked)", "hERG current change (%, negative = inhibition) at 1uM": 11.2}
{"smiles": "CCC12CN(C(=O)c3ccc([N+](=O)[O-])cc3)CC(CC)(CN(C(=O)c3ccc([N+](=O)[O-])cc3)C1)C2=O", "hERG current change (%, negative = inhibition) at 1uM": 13.5}
{"smiles": "CNC(=O)CSc1nc2cccnc2n1-c1ccc(F)cc1", "hERG current change (%, negative = inhibition) at 1uM": 10.4}
{"smiles": "OCCNc1nc(OCC(F)(F)F)nc(N2CCN(C34CC5CC(CC(C5)C3)C4)CC2)n1", "hERG current change (%, negative = inhibition) at 1uM": -13.2}
{"smiles": "O=C(NCCS(=O)(=O)NCC1CCCO1)c1ccccc1", "note": "(centres unmarked)", "hERG current change (%, negative = inhibition) at 1uM": 12.7}
{"smiles": "CCOc1ccc(NC(=O)CSc2ccc3nnc(-c4ccccn4)n3n2)cc1", "hERG current change (%, negative = inhibition) at 1uM": -11.7}
{"smiles": "O=C(Cc1ccccc1)NS(=O)(=O)c1ccc(N=NN2CCOCC2)cc1", "hERG current change (%, negative = inhibition) at 1uM": 17.5}
{"smiles": "CS(=O)(=O)c1cnc(-c2ccccc2)nc1Oc1ccc(F)cc1", "hERG current change (%, negative = inhibition) at 1uM": 7.69}
{"smiles": "Cc1cccc(C)c1NC(=O)CNC(=O)CCC(=O)N1CCOCC1", "hERG current change (%, negative = inhibition) at 1uM": 15.3}
{"smiles": "CC(=O)c1ccc(-n2c(-c3cc(-c4ccco4)[nH]n3)n[nH]c2=S)cc1", "hERG current change (%, negative = inhibition) at 1uM": 8.3}
{"smiles": "O=C(COC(=O)c1ccco1)c1ccc(Cl)cc1", "hERG current change (%, negative = inhibition) at 1uM": 18.3}
{"smiles": "CC(Sc1nc(-c2ccccc2)cc(C(F)(F)F)n1)C(=O)N1CCCC1", "note": "(centres unmarked)", "hERG current change (%, negative = inhibition) at 1uM": 12.9}
{"smiles": "O=c1c(Cc2ccc(F)cc2)c(O)ccn1CCCN1CCOCC1", "hERG current change (%, negative = inhibition) at 1uM": 19}
{"smiles": "O=C(c1ccccc1)c1cccc[n+]1[O-]", "hERG current change (%, negative = inhibition) at 1uM": 16.8}
{"smiles": "CCOc1cc(/C=N/Nc2nc(-c3cccc(S(=O)(=O)N4CCCC4)c3)cs2)ccc1O", "hERG current change (%, negative = inhibition) at 1uM": 8.88}
{"smiles": "CC1CCN(S(=O)(=O)c2ccc(NC(=O)N3c4ccccc4Sc4ccccc43)cc2)CC1", "hERG current change (%, negative = inhibition) at 1uM": 13.1}
{"smiles": "Cc1ccc(-c2nnc(-c3ccc(NC(=O)c4ccco4)cc3)o2)cc1", "hERG current change (%, negative = inhibition) at 1uM": 14.3}
{"smiles": "O=C(OCC(=O)N1CCCc2ccccc21)c1cncc(Br)c1", "hERG current change (%, negative = inhibition) at 1uM": -3.78}
{"smiles": "Cc1ccccc1OCc1nc(-c2ccc(NC(=O)c3ccco3)cc2)no1", "hERG current change (%, negative = inhibition) at 1uM": 7.14}
{"smiles": "CC1CCN(C(=O)Nc2ccc3nsnc3c2)CC1", "hERG current change (%, negative = inhibition) at 1uM": 14}
{"smiles": "Cc1nn2c(N3CCCC3)c3c(nc2c1-c1ccccc1)CCC3", "hERG current change (%, negative = inhibition) at 1uM": 10.8}
{"smiles": "COc1ccccc1CN(C)CC(=O)Nc1ccc(Cl)cc1F", "hERG current change (%, negative = inhibition) at 1uM": 13.8}
{"smiles": "O=C(Nc1cccc(C(=O)N2CCN(c3ccccc3)CC2)c1)c1ccco1", "hERG current change (%, negative = inhibition) at 1uM": 8.21}
{"smiles": "O=C(O)CCc1ccc(-c2cccs2)o1", "hERG current change (%, negative = inhibition) at 1uM": 11.8}
{"smiles": "CCCn1nnc(NC(=O)COc2ccc(Cl)cc2)n1", "hERG current change (%, negative = inhibition) at 1uM": 6.25}
{"smiles": "COc1ccc(NC(=O)CCCSc2ccccc2)cc1", "hERG current change (%, negative = inhibition) at 1uM": 10.8}
{"smiles": "CCOc1ccc(NC(=S)NNc2ccnc3cc(Cl)ccc23)cc1", "hERG current change (%, negative = inhibition) at 1uM": 15.1}
{"smiles": "CCOc1ccccc1NC1=NCC(=O)N1Cc1ccc(F)cc1", "hERG current change (%, negative = inhibition) at 1uM": 5.09}
{"smiles": "CC(c1ccc(F)cc1)n1cc(C(=O)NCc2ccc3c(c2)OCO3)nn1", "note": "(centres unmarked)", "hERG current change (%, negative = inhibition) at 1uM": 8.22}
{"smiles": "COc1ccc(NC(=O)/C=C/c2ccc(C)o2)cc1S(=O)(=O)N1CCOCC1", "hERG current change (%, negative = inhibition) at 1uM": 3.88}
{"smiles": "CC1CCN(C2CC(=O)N(c3ccc(Br)cc3Br)C2=O)CC1", "note": "(centres unmarked)", "hERG current change (%, negative = inhibition) at 1uM": 12.5}
{"smiles": "CN(C)S(=O)(=O)n1cc(/C=C(\\NC(=O)c2ccccc2Cl)C(=O)NCCN2CCOCC2)c2ccccc21", "hERG current change (%, negative = inhibition) at 1uM": 9.04}
{"smiles": "COc1cc(Br)c(/C=C/c2ccc3cccc(O)c3n2)cc1OC", "hERG current change (%, negative = inhibition) at 1uM": 13.4}
{"smiles": "COc1ccc(NCC(=O)N/N=C/C=C/c2ccccc2[N+](=O)[O-])cc1", "hERG current change (%, negative = inhibition) at 1uM": 8.16}
{"smiles": "Cc1ccsc1C(=O)OCC(=O)Nc1nnc(-c2ccccc2)o1", "hERG current change (%, negative = inhibition) at 1uM": 11.9}
{"smiles": "CCC(C(=O)NC1CCCCCC1)n1nc(C)n2c(cc3occc32)c1=O", "note": "(centres unmarked)", "hERG current change (%, negative = inhibition) at 1uM": -16.8}
{"smiles": "COc1ccc(CC2C(=O)OC(C)(C)OC2=O)c(Cl)c1OC", "hERG current change (%, negative = inhibition) at 1uM": 15.4}
{"smiles": "CCOC(=O)N1CCN(C(=O)/C(=C/c2ccc(OC)c(OC)c2)NC(=O)c2ccccc2)CC1", "hERG current change (%, negative = inhibition) at 1uM": 6.89}
{"smiles": "CCOc1cc(N2CCOCC2)c(OCC)cc1NC(=O)c1ccc(C)s1", "hERG current change (%, negative = inhibition) at 1uM": -1.15}
{"smiles": "CCOc1ccccc1N1CCN(C(=O)c2cc(-c3cc(OC)ccc3OC)nc3ccccc23)CC1", "hERG current change (%, negative = inhibition) at 1uM": 8.96}
{"smiles": "Cc1nn(Cc2noc(C(=O)NCc3ccc(F)cc3)n2)c(C)c1Br", "hERG current change (%, negative = inhibition) at 1uM": 9.1}
{"smiles": "Cc1ccc(S(=O)(=O)N2CCOCC2)c2nsnc12", "hERG current change (%, negative = inhibition) at 1uM": 2.18}
{"smiles": "Nc1ccc(-c2c3ccc(=O)cc-3oc3cc(O)ccc23)cc1C(=O)O", "hERG current change (%, negative = inhibition) at 1uM": 5.51}
{"smiles": "CCOc1cc(C(=O)Nc2ccc(S(=O)(=O)N3CCCCC3)cc2)ccc1OCC(=O)N1CCOCC1", "hERG current change (%, negative = inhibition) at 1uM": 5.05}
{"smiles": "COc1ccc(Cl)cc1NC(=O)Cn1nnc(C(=O)NCc2ccc3c(c2)OCO3)c1N", "hERG current change (%, negative = inhibition) at 1uM": 7.91}
{"smiles": "CCOC(=O)C(=Cc1ccc(-n2cncn2)cc1)C(=O)OCC", "hERG current change (%, negative = inhibition) at 1uM": 9.18}
{"smiles": "Cc1ccc(C2=N/C(=C\\c3c(C)nn(-c4ccccc4)c3N3CCCC3)C(=O)O2)cc1", "hERG current change (%, negative = inhibition) at 1uM": 9.33}
{"smiles": "Cc1ccc(CNC(=O)CSc2nc3ccsc3c(=O)n2Cc2ccccn2)cc1", "hERG current change (%, negative = inhibition) at 1uM": 7.72}
{"smiles": "CCOC(=O)c1cc(C)nc(N2CCCCC2)c1C#N", "hERG current change (%, negative = inhibition) at 1uM": 11.3}
{"smiles": "Cc1ccc(C(=O)COC(=O)CNS(=O)(=O)c2ccccc2)cc1[N+](=O)[O-]", "hERG current change (%, negative = inhibition) at 1uM": 6.72}
{"smiles": "CC(C)CCCNc1nc(N2CCOCC2)nc(N2CCOCC2)n1", "hERG current change (%, negative = inhibition) at 1uM": 10.3}
{"smiles": "CCOc1ccc(N(C)S(=O)(=O)c2c[nH]c(C(=O)OC)c2)cc1", "hERG current change (%, negative = inhibition) at 1uM": 6.59}
{"smiles": "Cc1ccc(NC(=O)C2CCCN(c3ncccn3)C2)cc1F", "note": "(centres unmarked)", "hERG current change (%, negative = inhibition) at 1uM": 3.69}
{"smiles": "CC(C)c1nnc(NC(=O)CCC(=O)NCCc2ccccc2)s1", "hERG current change (%, negative = inhibition) at 1uM": 11.3}
{"smiles": "O=S(=O)(c1cccs1)N1CCN(S(=O)(=O)c2cccs2)CC1", "hERG current change (%, negative = inhibition) at 1uM": 5.93}
{"smiles": "COc1ccc([C@H]2[C@@H](C#N)[C@H](C#N)N3CCCN23)cc1", "hERG current change (%, negative = inhibition) at 1uM": 14.3}
